Some of the results follow. One pool of 16,384 single-stranded DNAs met each Rep nickase domain in vitro at 3 µM enzyme and 37 °C for 1 h; the strands have 90 letters, of which the middle is given. Numbers give uncut DNA relative to the enzyme-free pool, as log2; more negative means more cut, near 0 not cut, and no call is made. Reads are scaled to the total; values above 0 arise when much of the pool is cut.
Test system: T1, Rep nickase domain of tomato golden mosaic virus
T1 sequence (Rep 1-124, printed without the tag): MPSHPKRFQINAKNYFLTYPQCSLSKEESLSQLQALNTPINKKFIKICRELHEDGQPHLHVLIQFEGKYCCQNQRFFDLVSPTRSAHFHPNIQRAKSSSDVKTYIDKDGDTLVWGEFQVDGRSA
Assay: uncleaved DNA left, log2 of reads against the no-enzyme library (log2 ratio); higher = less cleavage (more negative = more Rep cleavage of the k-mer); sequences stand for … in CTCGTCCG…ACCGGAGA
Method: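 A pool of 90-nt single-stranded DNAs with seven random bases just before the constant AC of the nick site (name = the seven bases) was cut by 3 µM recombinant His6-SUMO-tagged Rep nickase domain (300 nM DNA, 50 mM HEPES pH 8.0, 50 mM NaCl, 1 mM MnCl2, 1 h, 37 °C, three replicates). Uncut DNA was amplified and sequenced.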

Sequence | uncleaved DNA left (log2)
GGACGGG | -0.0259
TAGCCGA | -0.0688
TGATTTT | -0.0696
CTCTCAG | -0.118
AAAGACG | 0.0118
ACGGGGG | 0.053
TAATGCG | 0.0385
CACGGCT | 0.00683
CGCAGGG | 0.0284
AGCCGCC | -0.0771
CTTTCAC | -0.202
CAGGCGA | 0.128
AGCCCCT | -0.268
GAGTTCT | -0.0957
TCTTACC | -0.494
GCGAACG | 0.0334
GTTGGTA | 0.0511
CGGAACA | -0.027
CTCCTTC | -0.0838
ACCCGGT | 0.0545

Sequence | uncleaved DNA left (log2)
CCATAGC | 0.108
TGATAGA | -0.0258
GCTCACG | -0.166
TATCAGC | -0.0866
GTATCCG | -0.00337
GATGATG | 0.137
TACCCGC | -0.148
TTAGGGG | 0.0222
CAATCAG | 0.0202
TATCACG | 0.0739
TCTATGT | -0.075
GAGCTCC | 0.0752
CTCAAAT | 0.0516
TTATTGA | -0.0017
ATGGGCC | 0.0198
TTAGCAG | 0.0618
TTTAGTC | -0.0584
GATTGTA | 0.0825
AATCTAG | 0.0176
GAGGTTA | 0.205

Source: the supplement of paper PMC7826260
